Test results as given in publication PMC10806146.
Numbering of substitutions follows the chain as printed. These are yes or no findings as the source states them, for the method shown. Binding seen in cells or lysates may run through a third protein. Some entries that bind do so weakly or less than the wild type.

Protein sequences, listed by entry. Tags and fused reporters are not part of them.
UniProt P51617: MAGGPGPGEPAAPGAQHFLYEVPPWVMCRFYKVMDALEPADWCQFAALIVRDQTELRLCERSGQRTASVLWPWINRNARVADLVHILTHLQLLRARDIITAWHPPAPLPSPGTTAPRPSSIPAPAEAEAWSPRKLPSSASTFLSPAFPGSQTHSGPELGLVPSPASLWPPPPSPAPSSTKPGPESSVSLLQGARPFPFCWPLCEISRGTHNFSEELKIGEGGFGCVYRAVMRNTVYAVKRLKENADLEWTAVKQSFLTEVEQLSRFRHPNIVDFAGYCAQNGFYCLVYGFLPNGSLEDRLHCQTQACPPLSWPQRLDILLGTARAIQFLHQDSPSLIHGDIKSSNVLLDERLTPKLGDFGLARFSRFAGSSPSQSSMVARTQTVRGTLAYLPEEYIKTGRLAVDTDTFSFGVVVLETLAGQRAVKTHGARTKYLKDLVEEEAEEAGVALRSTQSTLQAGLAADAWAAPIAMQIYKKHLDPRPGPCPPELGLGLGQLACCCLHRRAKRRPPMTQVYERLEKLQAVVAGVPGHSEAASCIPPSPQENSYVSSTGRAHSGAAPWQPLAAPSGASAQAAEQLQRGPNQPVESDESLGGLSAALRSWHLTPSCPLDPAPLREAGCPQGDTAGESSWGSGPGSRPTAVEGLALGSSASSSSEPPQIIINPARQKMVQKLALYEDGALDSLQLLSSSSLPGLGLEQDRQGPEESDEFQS

Tests used:
Test in all cases: co-IP; IRAK-M WT or mutant co-expressed with IRAK-1 in 293T cells, without myddosome; IP with anti-IRAK-M 1F6; blots with anti-IRAK-1 and anti-IRAK-M 4369
[1] = molecular target: T1, interleukin-1 receptor associated kinase-M (IRAK-M), wild type (human) (UniProt Q9Y616)
T1 sequence: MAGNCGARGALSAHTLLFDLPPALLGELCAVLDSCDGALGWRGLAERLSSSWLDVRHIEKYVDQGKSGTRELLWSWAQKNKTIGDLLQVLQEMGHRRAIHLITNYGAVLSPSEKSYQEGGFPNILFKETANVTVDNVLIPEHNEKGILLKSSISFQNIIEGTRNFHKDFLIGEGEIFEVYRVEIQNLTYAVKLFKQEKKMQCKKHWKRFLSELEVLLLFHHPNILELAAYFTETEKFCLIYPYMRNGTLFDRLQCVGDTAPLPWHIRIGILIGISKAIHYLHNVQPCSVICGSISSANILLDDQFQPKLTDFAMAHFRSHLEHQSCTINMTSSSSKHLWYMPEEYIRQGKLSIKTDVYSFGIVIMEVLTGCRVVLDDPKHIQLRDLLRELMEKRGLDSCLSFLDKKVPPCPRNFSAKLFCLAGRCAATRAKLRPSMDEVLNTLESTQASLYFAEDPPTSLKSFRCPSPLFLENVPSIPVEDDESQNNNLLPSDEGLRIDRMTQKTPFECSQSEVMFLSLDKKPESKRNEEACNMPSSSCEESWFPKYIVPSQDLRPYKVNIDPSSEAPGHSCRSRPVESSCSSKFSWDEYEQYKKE

[2] = molecular target: T2, IRAK-M Y105A (human) (UniProt Q9Y616)
T2 sequence: T1 sequence with Y105A

[3] = molecular target: T3, IRAK-M K60E (human) (UniProt Q9Y616)
T3 sequence: T1 sequence with K60E

- binding [1]: binds
- binding [2]: binds
- binding [3]: no binding
Substance: IRAK-1 (from UniProt P51617 1-712)
